The values that follow come from patent US20220402989A1 (Regeneron, published 2022).

Common to all, as to assay: cell-based or functional assay
Assay [1] deals with T1, IL2Rβ/γ receptor (low/medium affinity IL2 receptor) on YT/STAT5-Luc cells with IL2Rα knocked out (human, UniProt P14784 27-551; P31785 23-369).
T1 sequence (looked up) 1: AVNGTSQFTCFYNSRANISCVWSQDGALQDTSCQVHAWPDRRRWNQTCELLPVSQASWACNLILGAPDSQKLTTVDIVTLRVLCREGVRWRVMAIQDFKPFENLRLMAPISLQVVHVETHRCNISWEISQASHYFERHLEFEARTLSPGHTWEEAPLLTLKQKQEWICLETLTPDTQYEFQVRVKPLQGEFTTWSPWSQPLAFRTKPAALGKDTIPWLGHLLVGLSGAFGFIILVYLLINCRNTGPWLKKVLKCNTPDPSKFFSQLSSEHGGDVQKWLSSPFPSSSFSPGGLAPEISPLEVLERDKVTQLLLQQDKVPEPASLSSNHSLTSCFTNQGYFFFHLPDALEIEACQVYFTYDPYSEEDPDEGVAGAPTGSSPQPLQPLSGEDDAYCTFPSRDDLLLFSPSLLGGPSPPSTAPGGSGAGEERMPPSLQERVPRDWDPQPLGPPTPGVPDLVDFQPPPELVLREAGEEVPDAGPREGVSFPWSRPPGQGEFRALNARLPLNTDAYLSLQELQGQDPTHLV
T1 sequence (looked up) 2: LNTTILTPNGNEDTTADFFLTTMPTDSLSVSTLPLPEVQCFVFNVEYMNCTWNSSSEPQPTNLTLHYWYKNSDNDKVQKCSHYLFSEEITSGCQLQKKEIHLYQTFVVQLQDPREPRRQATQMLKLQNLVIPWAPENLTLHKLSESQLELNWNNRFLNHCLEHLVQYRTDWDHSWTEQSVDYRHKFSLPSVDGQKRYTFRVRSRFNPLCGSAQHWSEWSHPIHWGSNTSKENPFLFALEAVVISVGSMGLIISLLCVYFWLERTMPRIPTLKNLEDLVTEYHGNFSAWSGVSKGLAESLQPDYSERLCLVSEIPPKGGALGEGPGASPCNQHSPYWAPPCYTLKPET

The target in assay [2] is T2, IL2Rα/β/γ receptor (high affinity IL2 receptor) on YT/STAT5-Luc cells expressing endogenous or over-expressed … (human, UniProt P01589 22-272; P14784 27-551; P31785 23-369).
T2 sequence (looked up) 1: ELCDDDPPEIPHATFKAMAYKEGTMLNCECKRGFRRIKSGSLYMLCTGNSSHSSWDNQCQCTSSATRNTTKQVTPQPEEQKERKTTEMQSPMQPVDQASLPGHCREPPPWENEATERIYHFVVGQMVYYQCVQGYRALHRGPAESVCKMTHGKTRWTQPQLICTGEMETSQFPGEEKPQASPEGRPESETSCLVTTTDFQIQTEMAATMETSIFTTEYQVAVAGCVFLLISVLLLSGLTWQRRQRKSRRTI
T2 sequence (looked up) 2: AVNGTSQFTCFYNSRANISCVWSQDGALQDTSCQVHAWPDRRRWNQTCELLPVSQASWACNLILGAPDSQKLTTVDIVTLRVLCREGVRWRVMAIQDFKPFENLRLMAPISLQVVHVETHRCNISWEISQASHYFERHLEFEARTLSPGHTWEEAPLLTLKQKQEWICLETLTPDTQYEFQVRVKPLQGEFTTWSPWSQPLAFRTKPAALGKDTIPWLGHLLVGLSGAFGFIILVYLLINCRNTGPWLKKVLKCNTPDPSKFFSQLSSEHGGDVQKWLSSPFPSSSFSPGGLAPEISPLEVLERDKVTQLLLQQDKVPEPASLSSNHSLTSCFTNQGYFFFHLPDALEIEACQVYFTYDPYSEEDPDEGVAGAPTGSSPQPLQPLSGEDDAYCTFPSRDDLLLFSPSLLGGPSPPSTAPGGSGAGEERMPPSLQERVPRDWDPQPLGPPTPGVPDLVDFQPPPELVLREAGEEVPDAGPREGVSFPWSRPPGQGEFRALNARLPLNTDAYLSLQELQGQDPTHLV
T2 sequence (looked up) 3: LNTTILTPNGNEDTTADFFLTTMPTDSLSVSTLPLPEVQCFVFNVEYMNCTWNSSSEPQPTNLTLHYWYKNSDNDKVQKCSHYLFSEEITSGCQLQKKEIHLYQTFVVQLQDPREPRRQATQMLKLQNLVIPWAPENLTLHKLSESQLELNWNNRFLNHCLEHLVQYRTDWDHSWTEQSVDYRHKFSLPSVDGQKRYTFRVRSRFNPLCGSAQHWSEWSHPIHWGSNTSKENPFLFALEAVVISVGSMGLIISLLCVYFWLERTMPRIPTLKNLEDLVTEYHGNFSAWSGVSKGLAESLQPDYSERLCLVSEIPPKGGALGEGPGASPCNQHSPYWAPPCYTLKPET

In assay [3] the target is T1, IL2Rβ/γ receptor (low/medium affinity …). The source holds these as a separate data set.
The target in assay [4] is T2, IL2Rα/β/γ receptor (high affinity IL2 …). This is another data set of the same source.

Where two headings read alike, the source gives them in different places.

B1: aPD1(9048)-IL2-IL2Ra (other)
VH: QVQLVQSGAEVKRPGSSVKVSCKVSGVTFRNFAIIWVRQAPGQGLEWMGGIIPFFSAANYAQSFQGRVTITPDESTSTAFMELASLRSEDTAVYYCAREGERGHTYGFDYWGQGTLVTVSS
VL: [about 100 residues skipped]
As for B1, in assay [1], the “EC50 (M), STAT5-Luc IL2 reporter assay, CD25 KO/PD1 OE” value worked out at 2.05e-09 M and the “Max Fold induction, STAT5-Luc IL2 reporter assay, CD25 KO/PD1 OE” value was 4.42 fold. In assay [2], the “EC50 (M), STAT5-Luc IL2 reporter assay, CD25 OE/PD1 OE” value was determined as 1.75e-10 M and the “Max Fold induction, STAT5-Luc IL2 reporter assay, CD25 OE/PD1 OE” value was found to be 7.77 fold.

B2: REGN13233 (anti-PD-1 antibody with VH/VL of SEQ ID NOs: 41/10 linked to IL2 variant IL2(3 m)) (other)
VH: QVQLVQSGAEVKRPGSSVKVSCKVSGVTFRNFAIIWVRQAPGQGLEWMGGIIPFFSAANYAQSFQGRVTITPDESTSTAFMELASLRSEDTAVYYCAREGERGHTYGFDYWGQGTLVTVSS
VL: [about 100 residues skipped]
As to B2, in assay [3], the “EC50 (M), STAT5-Luc IL2 reporter assay, CD25 KO/PD1 OE” value was found to be 5.32e-11 M and the “Max Fold induction, STAT5-Luc IL2 reporter assay, CD25 KO/PD1 OE” value was 4.24 fold. Further, in assay [4], the “EC50 (M), STAT5-Luc IL2 reporter assay, CD25 OE/PD1 OE” value was determined as 4.64e-11 M and the “Max Fold induction, STAT5-Luc IL2 reporter assay, CD25 OE/PD1 OE” value was found to be 4.62 fold.
